In PubChem BioAssay (NCI) one finds GI50 and TGI data, which are given here for 35 compounds.

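Five concentrations, 48 hours, 96-well plates. GI50 marks 50% less growth. The concentration for full growth arrest is given as TGI.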

This experiment relates to NCI-H322M lung. Kind of experiment: NCI tumour cell line growth inhibition, 48 h.
Turning to `COc1cccc(-c2nc(-c3ccc(NC(=O)C(C)C)cc3)[nH]c2-c2ccnc(Br)c2)c1`, the GI50 was 2.72 µM and the TGI is over 100 µM. Turning to `Cn1cnc([N+](=O)[O-])c1S(=O)(=O)Oc1cccc2ccccc12`, the GI50 was 19.2 µM and the TGI was 71.6 µM. `N#CC(C#N)=CNC(N)=S` came in with a TGI of over 100 µM.

`COc1ccc([C@H]2[C@@H](F)C(=O)N2c2cc(OC)c(OC)c(OC)c2)cc1F`: the GI50 was 1.63 µM and the TGI was over 100 µM. With `Cc1cc2c(cc1Cl)SC(N(N(C)C)S(=O)(=O)c1ccc(Cl)cc1)=NS2(=O)=O`, the GI50 is 33.4 µM and the TGI was over 100 µM. In turn, `O=C(O)/C=C(/C(=O)O)C12CCN3CC4=CCOC5CC(=O)NC1C5C4CC32` (stereo unspecified) yielded a TGI of over 100 µM.

`Brc1ccccc1C1SCc2nc3ccccc3n21` (stereo unspecified) registered a TGI of over 100 µM. As for `O=C(/C=C/c1ccc(Cl)cc1)c1ccc(Nc2ccnc3cc(Cl)ccc23)cc1`, the GI50 was over 100 µM and the TGI is over 100 µM.

Consider `COc1cc(OC)cc(-c2cc(=O)c3c(OC)c(OC)c(OC)c(OC)c3o2)c1`, for which the TGI is over 100 µM. Take `CSC(=S)N(C)C`: the TGI was over 100 µM.

Consider `COc1ccc(-c2nc(SCC(=O)N/N=C/c3ccc(N(C)C)cc3)[nH]c2-c2ccc(OC)cc2)cc1`, for which the TGI is over 100 µM. Same read-out and setting: next, `CC1(C)C2CCC1(C)[C@H](n1c(=O)n([C@@H]3CC4CCC3(C)C4(C)C)c(=O)n([C@@H]3CC4CCC3(C)C4(C)C)c1=O)C2`: over 100 µM; `O=C1NCC2(CCN(CCCC3(c4ccc(F)cc4)OCCO3)CC2)N1c1ccccc1`: over 100 µM. Turning to `Nc1ncnc2n[nH]c(Nc3ccc(F)cc3)c12`, the GI50 was 52.6 µM and the TGI was over 100 µM. For the compound `CC1(C)CCCC2OC2CCC(C)(C)C1=O` (stereo unspecified), the TGI is over 100 µM.

Take `Cc1ccc(NC(=O)c2cc3cc(N=Nc4ccccc4C(=O)O)ccc3oc2=O)cc1`: the TGI was over 100 µM. Consider `COc1cc2c3c(n(C)c(=O)c2cc1OC)-c1cc2c(cc1/C3=C\CCN)OCO2`, for which the GI50 is 0.498 µM and the TGI worked out at 4.03 µM. Turning to `COc1cccc2c1OC1(C=C2)Oc2ccccc2C(=O)N1C` (stereo unspecified), the TGI is over 100 µM. Consider `COc1cc2c3c(n(C)c(=O)c2cc1OC)-c1cc2c(cc1/C3=C\CCCN)OCO2`, for which the GI50 was 16.2 µM and the TGI worked out at 53.1 µM. The corresponding values for `COc1ccc(/C=C(/C#N)n2nnc3cccc(F)c32)cc1` are 2.59 µM and over 100 µM. In the case of `CSC(=S)N/N=C(\C)c1ccc(S(=O)(=O)N(C)c2ccccc2)cc1`, the TGI is over 100 µM. On the same count and under the same terms, next, `CC1=C[C@@H]2Cc3nc4cc(Cl)ccc4c(N)c3[C@H](C1)C2`: 22.6 µM; `CCN(CC)CCN(C(=Nc1ccccc1)N1CCOCC1)c1ccccc1`: over 100 µM; `CCOC(=O)c1cc2nc3ccccc3c(=O)n2c2ccccc12`: over 10 µM.

`Cc1ccccc1S(=O)(=O)OC1NS(=O)(=O)c2ccccc21` (stereo unspecified): the TGI is over 100 µM. Same read-out and setting: as for `O=c1[nH]c(Nc2nc3ccccc3[nH]2)nc(O)c1-c1ccccc1`, the figure is over 100 µM; as for `Cc1cccc2c1CC1(C2)Cc2c(C)cccc2C1=O` (stereo unspecified), 61.6 µM. Still for that read-out and setting: next, `CC(=O)Nc1nc(C#N)[nH]c1C#N`: over 100 µM. In the case of `Cc1ccc(S(=O)(=O)N/N=C/C2(c3ccccc3)c3ccccc3-c3ccccc32)cc1`, the TGI was 77.5 µM.

As for `COc1cc(NS(C)(=O)=O)ccc1Nc1cc(C)[nH]c2ccc3nccc3c12`, the TGI was over 100 µM.

On to `OCCc1ccsc1-c1sc(-c2cc(CCO)c(-c3sccc3CCO)s2)cc1CCO`, for which the TGI turned out to be 23.5 µM. On to `CCOC(=O)c1cn2c(nc1=O)N[C@H]1CCCC[C@@H]12`, for which the TGI is over 100 µM. For the compound `OC(c1cc(-c2ccc(C(F)(F)F)cc2)nc(-c2ccc(C(F)(F)F)cc2)c1)C1CCCCN1` (stereo unspecified), the GI50 is 1.59 µM and the TGI amounted to 3.14 µM.

As to `Fc1cc2[nH]ncc2c2c3c(c(-c4cn[nH]c4)nc12)CCCC3`, the GI50 was 1.01 µM and the TGI was 7.16 µM. Compound `COc1ccc2c(c1)/C(=C\c1c(Cl)nc3sc(C)cn13)C(=O)N2` returned a TGI of 19.6 µM.
